The shares of active, inactive and inconclusive entries below differ from those in the screen. No potency is given beside an inconclusive call; the fits are too rough. The source made the active and inactive calls. The call rests on the fitted dose curve; in most records, active means well fitted cell-killing curve with a large enough effect; inconclusive means small, poorly fitted or top-dose-only effect; inactive means flat fitted curve, though single readings scatter.
assay: qHTS of pediatric cancer cell lines to identify multiple opportunities for drug repurposing: Confirmatory screen for SK-N-SH cells (AID 1347129); details: SK-N-SH neuroblastoma cell viability; series mostly up to 46.1 µM;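 further: cells exposed to compound for 48 h before viability read; nearly all actives have a fitted effect of over 60% in size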
Excerpt: Drug repurposing or repositioning has been offered as a strategy for drug development in oncology programs. This approach has special potential for childhood cancers and other rare or orphan diseases, where the expected return on new drug development has been a disincentive to pharmaceuticals.
In this project we exploit the poly-pharmacology of drugs to discover new indications via phenotypic screening of a panel of 19 well-characterized cell lines derived from solid tumors seen in children and adolescents. The goal is to identify approved drugs with previously unrecognized anticancer properties that has the potential to reveal new mechanisms and biological processes involved in carcinogenesis or drug resistance. We employed a titration-based paradigm (quantitative high-throughput screening or qHTS), where all compounds were tested at multiple concentrations for their effect on cell viability. Concentration-response curves (CRCs) were derived directly from the primary screen, and both potency and efficacy values were used to identify compounds with robust bioactivity profiles. We screened the NIH Chemical Genomics Center (NCGC) Pharmaceutical Collection (NPC) and Mechanism Interrogation Plate (MIPE) small molecule collections of approved and investigational compounds against these cell lines; and measured metabolically active cells after 48 hours of compound treatment as a proxy for cell viability.
Assay Submitter: Nathalia J. Martinez, National Center for Advancing Translational Sciences, National Institutes of Health, Rockville, MD, USA; email: natalia.martinez@nih.gov
[1] Shen, M et al. Quantitative high-throughput phenotypic screening of pediatric cancer cell lines identifies multiple opportunities for drug repurposing. Oncotarget 2017 Dec 19;9(4):4758-4772. PMID 29435139.
The cells were obtained from University of North Carolina (UNC), Pediatric Preclinical Testing Program (PPT), and Coriell Institute (CI).
qHTS cell viability assay:
Cells were assayed in growth media at a density of 500-1,000 cells/well. Five microliters of cells were dispensed into 1,536-well, white, solid-bottom, TC-treated plates (Greiner Bio One) using a multidrop dispenser and incubated at 37 degrees C, 5% CO2, under a humidified atmosphere for 5 hours. Twenty-three nanoliters of compounds and controls (neutral control DMSO or positive control bortezomib at final concentration of 2.3 µM) were subsequently transferred by Kalypsys pintool. For primary screens, the MIPE collection was tested at 11-point dilutions (final concentrations range from 0.78 nM to 46 µM) and the NPC collection at 8-point dilutions (final concentrations range from 0.59 nM to 46 µM). Compounds tested in follow-up screens were assayed at 11-point dilutions. Cells were incubated for 48 hours, followed by addition of 3 µL of CellTiter-Glo (Promega). After a 15 min incubation at room temperature, samples were analyzed for luminescence intensity using a ViewLux High-throughput CCD imager equipped with clear filters.
Potency means the concentration at half of the fitted maximal effect; tags describe the fitted curve by direction and shape.

Structure (SMILES) | Potency
CCOc1cc2ncc(C#N)c(Nc3ccc(OCc4ccccn4)c(Cl)c3)c2cc1NC(=O)C=CCN(C)C | inconclusive [cytotoxic, partial curve]
Cn1c(=O)n(-c2ccc(C(C)(C)C#N)cc2)c2c3cc(-c4cnc5ccccc5c4)ccc3ncc21 | inconclusive [cytotoxic, full curve]
COc1cc(=C2C=c3ccccc3=N2)[nH]c1=Cc1[nH]c(C)cc1C | active: 1.24 µM
Cc1ccc2nc(NC(=O)CSc3nc4c(c(=O)n3-c3ccccc3)SCC4)sc2c1 | inconclusive [cytotoxic, full curve]
COc1cc2nccc(Oc3ccc(NC(=O)NC4CC4)c(Cl)c3)c2cc1C(N)=O | inactive
COc1cc2nccc(Oc3ccc(NC(=O)C4(C(=O)Nc5ccc(F)cc5)CC4)cc3)c2cc1OC | inconclusive [cytotoxic, full curve]
C=CC(=O)N1CCC[C@@H](n2nc(-c3ccc(Oc4ccccc4)cc3)c3c(N)ncnc32)C1 | inconclusive [cytotoxic, single point]
COC(=O)Nc1nc2ccc(S(=O)c3ccccc3)cc2[nH]1 (stereo not given) | active: 2.96 µM
CCOC(=O)[C@@H](N)Cc1ccc(-c2cc(O[C@H](c3ccc(Cl)cc3-n3ccc(C)n3)C(F)(F)F)nc(N)n2)cc1 | inconclusive [cytotoxic, single point]
Cc1nc(N)ncc1-c1nc(N2CCOCC2)c2sc(C(C)(C)O)cc2n1 | active: 1.48 µM
C[C@H]1[C@@H](OC(=O)CCC(=O)O)O[C@@H]2O[C@@]3(C)CC[C@@H]4[C@H](C)CC[C@@H]1[C@@]24OO3 | inconclusive [cytotoxic, partial curve]
O=[N+]([O-])c1ccc(/C=N\O)o1 | inactive
Cc1ccc2nc(N)[nH]c(=O)c2c1Sc1ccncc1 | inconclusive [cytotoxic, partial curve, poor fit]
CCN(CC)CCOc1ccc2c(c1)C(=O)c1cc(OCCN(CC)CC)ccc1-2 | active: 18.7 µM
Nc1cc(C(F)(F)F)c(-c2cc(N3CCOCC3)nc(N3CCOCC3)n2)cn1 | active: 4.69 µM
Cc1cnc(-c2cnc(NCCNc3ccc(C#N)cn3)nc2-c2ccc(Cl)cc2Cl)[nH]1 | inconclusive [cytotoxic, single point]
Cc1cc(OCCOCC[N+](C)(C)Cc2ccccc2)ccc1C(C)(C)CC(C)(C)C | active: 20.9 µM
CCC(=C(c1ccccc1)c1ccc(OCCN(C)C)cc1)c1ccccc1 | inconclusive [cytotoxic, single point]
O=c1[nH]nc(Sc2ncc([N+](=O)[O-])s2)n1-c1ccc2c(c1)OCCO2 | active: 9.35 µM
O=C(CCCN1CC=C(n2c(=O)[nH]c3ccccc32)CC1)c1ccc(F)cc1 | inconclusive [cytotoxic, partial curve]

Structure (SMILES) | Potency
Cn1cc(-c2cnn3c(N)c(Br)c([C@H]4CCCNC4)nc23)cn1 | active: 18.7 µM
C=C1C(=CC=C2CCC[C@]3(C)[C@@H]([C@H](C)C=C[C@H](C)C(C)C)CC[C@@H]23)C[C@@H](O)C[C@@H]1O | inactive
Nc1nc(Cl)nc2c1ncn2[C@H]1C[C@H](O)[C@@H](CO)O1 | inconclusive [cytotoxic, full curve, poor fit]
COC[C@H](NC(=O)c1cnc(C)s1)C(=O)N[C@@H](COC)C(=O)N[C@@H](Cc1ccccc1)C(=O)[C@@]1(C)CO1 | inconclusive [cytotoxic, full curve, poor fit]
COc1ccc(C=Cc2cc(OC)c(OC)c(OC)c2)cc1O | inconclusive [cytotoxic, full curve]
C[C@]12CC[C@@H]3c4ccc(O)cc4C[C@@H](CCCCCCCCCS(=O)CCCC(F)(F)C(F)(F)F)[C@H]3[C@@H]1CC[C@@H]2O (stereo not given in full) | inactive
O=C(CCCN1CCC(O)(c2ccc(Br)cc2)CC1)c1ccc(F)cc1 | inconclusive [cytotoxic, partial curve]
Cn1c(Nc2ccc(C(F)(F)F)cc2)nc2cc(Oc3ccnc(-c4ncc(C(F)(F)F)[nH]4)c3)ccc21 | inconclusive [cytotoxic, partial curve]
C[C@@H]1CN(CCCn2c3ccccc3c3ccccc32)C[C@H](C)N1 | inconclusive [cytotoxic, single point]
CC(C)(C)c1cnc(CSc2cnc(NC(=O)C3CCNCC3)s2)o1 | active: 0.935 µM
CN(C)CC(C)(C)CNc1nn2c(-c3ccccc3)nnc2cc1C1CCC1 | inactive
CCC1=C[C@@H]2CN(C1)Cc1c([nH]c3ccccc13)[C@@](C(=O)OC)(c1cc3c(cc1OC)N(C)[C@H]1[C@@](O)(C(=O)OC)[C@H](OC(C)=O)[C@]4(CC)C=CCN5CC[C@]31[C@@H]54)C2 | inconclusive [cytotoxic, full curve]
O=C(CCCCCCC(=O)Nc1ccccc1)NO | inconclusive [cytotoxic, single point]
CC(=O)Oc1ccc2c(c1)CC[C@@H]1[C@@H]2CC[C@]2(C)[C@@H](O)CC[C@@H]12 | inconclusive [cytotoxic, partial curve, poor fit]
Cc1ccc(C(=O)Oc2ccc(C(O)CNC(C)(C)C)cc2OC(=O)c2ccc(C)cc2)cc1 (stereo not given) | inconclusive [cytotoxic, partial curve]
CC(NCc1ccc2c(c1)nc(NC(=O)c1ccc(-c3cn[nH]c3)s1)n2CC(C)(C)O)C(C)(C)C (stereo not given) | active: 0.833 µM
O=C(Cc1ccc(-c2ccc(OCCN3CCOCC3)cc2)cn1)NCc1ccccc1 | inconclusive [cytotoxic, full curve]
COc1c(C)c2c(c(O)c1C/C=C(\C)CCC(=O)OCCN1CCOCC1)C(=O)OC2 | inconclusive [cytotoxic, full curve]
CC1(C)CCC(c2ccc(Cl)cc2)=C(CN2CCN(c3ccc(C(=O)NS(=O)(=O)c4ccc(N[C@H](CCN5CCOCC5)CSc5ccccc5)c(S(=O)(=O)C(F)(F)F)c4)cc3)CC2)C1 | inconclusive [cytotoxic, single point]
Cc1c(NC(=O)OC[C@@H]2COCCN2)cn2ncnc(Nc3ccc4c(cnn4Cc4cccc(F)c4)c3)c12 | inconclusive [cytotoxic, full curve, poor fit]

— PubChem BioAssay (NCATS)
